In PubChem BioAssay AID588342 (National Center for Advancing Translational Sciences (NCATS), 2011):
Where “and” joins values, the source holds several entries; their conditions need not be identical. Equal entries are not always repeated. Out of some 360,000 compounds screened, about 25,000 (6.9%) were called active. Inconclusive means that the source gave no clear call. Such entries were picked first, then a sample of the others. Calls follow the shape of the dose curve; as a rule, active = well fitted inhibition curve with a large enough effect; inconclusive = small, poorly fitted or top-dose-only effect; inactive = flat fitted curve, though single readings scatter. Potencies of inconclusive entries are doubtful fits and often do not repeat.

These compounds were tested against Luciferin 4-monooxygenase (Photinus pyralis) (UniProt P08659) (assay: qHTS profiling assay for firefly luciferase inhibitor/activator using purifed enzyme and Km concentrations of substrates (counterscreen for miR-21 project)). Conditions: purified FLuc, luminescence inhibition; series mostly up to 57.5 µM; activity change, negative = inhibition: at the top concentration.
Procedure, shortened: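 Biochemical qHTS of compounds, final roughly 60 µM downward over six points, against 10 nM purified firefly luciferase using Km concentrations of substrates (10 uM D-luciferin, 10 uM ATP) in Tris acetate pH 7.5 buffer; luminescence output.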
Also: nearly all actives have a fitted effect of over 55% in size.
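For activity change, negative = inhibition in this document: plate controls were vehicle for no effect and reference inhibitor for full effect.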
Potency is read from the fitted curve at half-maximal effect; tags tell the direction and shape of the fitted curve.

Sequence of UniProt P08659 (P08659 whole entry, looked up): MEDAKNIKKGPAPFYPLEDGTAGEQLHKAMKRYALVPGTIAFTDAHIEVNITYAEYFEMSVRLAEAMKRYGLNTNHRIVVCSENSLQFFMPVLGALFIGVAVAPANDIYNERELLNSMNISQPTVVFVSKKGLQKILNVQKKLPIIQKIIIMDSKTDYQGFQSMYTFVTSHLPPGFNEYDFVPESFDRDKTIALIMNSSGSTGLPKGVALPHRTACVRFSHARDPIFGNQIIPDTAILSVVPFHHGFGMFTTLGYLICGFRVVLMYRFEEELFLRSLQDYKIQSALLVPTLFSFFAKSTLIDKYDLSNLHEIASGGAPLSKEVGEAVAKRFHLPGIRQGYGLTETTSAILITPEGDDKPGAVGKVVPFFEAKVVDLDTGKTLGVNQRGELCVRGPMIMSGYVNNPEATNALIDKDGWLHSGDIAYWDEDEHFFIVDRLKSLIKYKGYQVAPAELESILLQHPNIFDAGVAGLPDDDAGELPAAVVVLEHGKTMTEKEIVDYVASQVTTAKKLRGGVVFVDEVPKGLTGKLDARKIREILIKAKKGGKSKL

| Compound | Potency | activity change, negative = inhibition |
| --- | --- | --- |
| Cc1ccc(OCCCn2cc(C#N)c3ccccc32)cc1 | inconclusive: 19 µM [inhibitor, partial curve, poor fit] | – |
| CC(=O)Nc1ccc(NC(=O)Cc2sc(-c3cccnc3)nc2-c2ccc(C)cc2)cc1 | inconclusive: 15.1 µM [inhibitor, partial curve, poor fit] | – |
| O=C(O)CCCCn1c(SCC(=O)Nc2ccccc2C(F)(F)F)nc2ccsc2c1=O | inconclusive: 13.5 µM [inhibitor, partial curve, poor fit] | – |
| Cc1ccc(S(=O)(=O)/N=C2/NC(=O)/C(=C/c3ccccn3)S2)cc1 | inconclusive: 37.9 µM [inhibitor, partial curve, poor fit] | – |
| CS(=O)(=O)C1=NSC2=NC(=O)/C(=C\c3ccc(-c4ccccc4)o3)C(=N)N21 | active: 12 µM | – |
| CC(C(=O)Nc1ccc(O)c(C(=O)O)c1)N1C(=O)/C(=C/c2cccs2)SC1=S (stereo unspecified) | inconclusive: 23.9 µM [inhibitor, partial curve, poor fit] | – |
| CNC(=O)C1CCC(Cn2c(=O)c3sccc3n(CC(=O)Nc3ccc(C)c(C)c3)c2=O)CC1 (stereo unspecified) | – | inactive: -8.5% |
| CC(C)C(=O)OCc1cn(-c2ccc(Cl)c(Cl)c2)nn1 | inconclusive: 19 µM [inhibitor, partial curve] | – |
| CC(=O)c1cccc(NC(=S)NC(=O)Cc2ccc(Cl)cc2)c1 | – | inactive: 1.13% |
| CCS(=O)(=O)c1nn2c(N)c(/C=C3/C=CC(=O)C(OC)=C3)c(=O)nc2s1 | inconclusive: 26.9 µM [inhibitor, single point] | – |
| COc1cc(NC(=O)CN2c3ccccc3S(=O)(=O)c3ccccc32)cc(OC)c1 | – | inactive: -3.31% |
| S=c1[nH]nc(-c2cc(-c3ccccc3)n[nH]2)n1/N=C/c1ccccc1 | inconclusive: 26.9 µM [inhibitor, single point] | – |
| CCOc1c(C)cc(-c2ncccc2O)cc1C | inconclusive: 26.9 µM [inhibitor, single point] and inconclusive: 21.3 µM [inhibitor, single point] | – |
| Cc1ccc(Nc2nnc(-c3ccc(C)c(S(=O)(=O)N4CCN(C)CC4)c3)c3ccccc23)cc1 | inconclusive: 4.26 µM [inhibitor, partial curve, poor fit] | – |
| CN(C)CC(C)(C)CNC(=O)c1cc(Br)cc(Br)c1O | inconclusive: 37.9 µM [inhibitor, partial curve, poor fit] | – |
| CC1CC(C)CN(C(=O)Cc2c(C(=O)O)[nH]c3ccc(Cl)cc23)C1 (stereo unspecified) | inconclusive: 30.1 µM [inhibitor, single point] | – |
